Assay results from the supplement of paper PMC8728848.
The other results are listed elsewhere or left out.

Legend:
Experiment in all cases: glycan array binding signal (z-score within array); higher = stronger binding
Conditions in all cases: glycan notation: IUPAC condensed, linker removed
[1] = biological target: Gal(b1-2)Gal
Method in brief: (§1)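 Glycan array binding is given as a within-array Z-score, which can be read as non-binding when negative. The arrays, 3228 of them, came from the Consortium for Functional Glycomics database and were retained only where the protein sequence was available. Z-scores were averaged across arrays of the same protein sequence at different concentrations or buffers and across linkers.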

[2] = biological target: Gal(b1-3)Gal
Method in brief: as §1

[3] = biological target: Gal(b1-3)Gal(b1-4)GlcNAc
Method in brief: as §1

[4] = biological target: Gal(b1-3)GalNAc
Method in brief: as §1

[5] = biological target: Gal(b1-3)GalNAc(a1-3)[Fuc(a1-2)]Gal(b1-4)Glc
Method in brief: as §1

[6] = biological target: Gal(b1-3)GalNAc(a1-3)[Fuc(a1-2)]Gal(b1-4)GlcNAc
Method in brief: as §1

[7] = biological target: Gal(b1-3)GalNAc(b1-3)Gal
Method in brief: as §1

[8] = biological target: Gal(b1-3)GalNAc(b1-3)Gal(a1-4)Gal(b1-4)Glc
Method in brief: as §1

[9] = biological target: Gal(b1-3)GalNAc(b1-4)Gal(b1-4)Glc
Method in brief: as §1

[10] = biological target: Gal(b1-3)GalNAc(b1-4)[Neu5Ac(a2-3)]Gal(b1-4)Glc
Method in brief: as §1

[11] = biological target: Gal(b1-3)GlcNAc
Method in brief: as §1

[12] = biological target: Gal(b1-3)GlcNAc(a1-3)Gal(b1-4)GlcNAc
Method in brief: as §1

[13] = biological target: Gal(b1-3)GlcNAc(a1-6)Gal(b1-4)GlcNAc
Method in brief: as §1

[14] = biological target: Gal(b1-3)GlcNAc(b1-2)Man
Method in brief: as §1

[15] = biological target: Gal(b1-3)GlcNAc(b1-2)Man(a1-3)[Gal(b1-3)GlcNAc(b1-2)Man(a1-6)]Man(b1-4)GlcNAc(b1-4)GlcNAc
Method in brief: as §1

[16] = biological target: Gal(b1-3)GlcNAc(b1-2)Man(a1-3)[Gal(b1-3)GlcNAc(b1-2)Man(a1-6)]Man(b1-4)GlcNAc(b1-4)[Fuc(a1-6)]GlcNAc
Method in brief: as §1

[17] = biological target: Gal(b1-3)GlcNAc(b1-2)Man(a1-3)[GlcNAc(b1-4)][Gal(b1-3)GlcNAc(b1-2)Man(a1-6)]Man(b1-4)GlcNAc(b1-4)GlcNAc
Method in brief: as §1

[18] = biological target: Gal(b1-3)GlcNAc(b1-2)[Gal(b1-3)GlcNAc(b1-6)]Man(a1-6)[Gal(b1-3)GlcNAc(b1-2)Man(a1-3)]Man(b1-4)GlcNAc(b1-4)GlcNAc
Method in brief: as §1

[19] = biological target: Gal(b1-3)GlcNAc(b1-3)Gal(b1-3)GlcNAc
Method in brief: as §1

[20] = biological target: Gal(b1-3)GlcNAc(b1-3)Gal(b1-4)Glc
Method in brief: as §1

[21] = biological target: Gal(b1-3)GlcNAc(b1-3)Gal(b1-4)GlcNAc
Method in brief: as §1

[22] = biological target: Gal(b1-3)GlcNAc(b1-3)Gal(b1-4)GlcNAc(b1-2)Man(a1-3)[Gal(b1-3)GlcNAc(b1-3)Gal(b1-4)GlcNAc(b1-2)Man(a1-6)]Man(b1-4)GlcNAc(b1-4)GlcNAc
Method in brief: as §1

[23] = biological target: Gal(b1-3)GlcNAc(b1-3)Gal(b1-4)GlcNAc(b1-2)[Gal(b1-3)GlcNAc(b1-3)Gal(b1-4)GlcNAc(b1-6)]Man(a1-6)[Gal(b1-3)GlcNAc(b1-3)Gal(b1-4)GlcNAc(b1-2)Man(a1-3)]Man(b1-4)GlcNAc(b1-4)[Fuc(a1-6)]GlcNAc
Method in brief: as §1

[24] = biological target: Gal(b1-3)GlcNAc(b1-3)Gal(b1-4)GlcNAc(b1-3)Gal(b1-4)GlcNAc(b1-2)[Gal(b1-3)GlcNAc(b1-3)Gal(b1-4)GlcNAc(b1-3)Gal(b1-4)GlcNAc(b1-6)]Man(a1-6)[Gal(b1-3)GlcNAc(b1-3)Gal(b1-4)GlcNAc(b1-3)Gal(b1-4)GlcNAc(b1-2)Man(a1-3)]Man(b1-4)GlcNAc(b1-4)[Fuc(a1-6)]GlcNAc
Method in brief: as §1

[25] = biological target: Gal(b1-3)GlcNAc(b1-3)Gal(b1-4)GlcNAc(b1-6)[Gal(b1-3)GlcNAc(b1-3)]Gal(b1-4)Glc
Method in brief: as §1

[26] = biological target: Gal(b1-3)GlcNAc(b1-3)Gal(b1-4)[Fuc(a1-3)]GlcNAc
Method in brief: as §1

[27] = biological target: Gal(b1-3)GlcNAc(b1-3)Gal(b1-4)[Fuc(a1-3)]GlcNAc(b1-6)[Gal(b1-3)GlcNAc(b1-3)]Gal(b1-4)Glc
Method in brief: as §1

[28] = biological target: Gal(b1-3)GlcNAc(b1-3)GalNAc
Method in brief: as §1

[29] = biological target: Gal(b1-3)GlcNAc(b1-6)Gal(b1-4)GlcNAc
Method in brief: as §1

[30] = biological target: Gal(b1-3)GlcNAc(b1-6)GalNAc
Method in brief: as §1

[31] = biological target: Gal(b1-3)GlcNAc(b1-6)[Gal(b1-3)]GalNAc
Method in brief: as §1

[32] = biological target: Gal(b1-3)GlcNAc6S
Method in brief: as §1

[33] = biological target: Gal(b1-3)[Fuc(a1-4)]GlcNAc
Method in brief: as §1

[34] = biological target: Gal(b1-3)[Fuc(a1-4)]GlcNAc(b1-2)Man
Method in brief: as §1

[35] = biological target: Gal(b1-3)[Fuc(a1-4)]GlcNAc(b1-2)Man(a1-3)[Gal(b1-3)[Fuc(a1-4)]GlcNAc(b1-2)Man(a1-6)]Man(b1-4)GlcNAc(b1-4)[Fuc(a1-6)]GlcNAc
Method in brief: as §1

[36] = biological target: Gal(b1-3)[Fuc(a1-4)]GlcNAc(b1-3)Gal(b1-3)[Fuc(a1-4)]GlcNAc
Method in brief: as §1

[37] = biological target: Gal(b1-3)[Fuc(a1-4)]GlcNAc(b1-3)Gal(b1-4)[Fuc(a1-3)]GlcNAc
Method in brief: as §1

B1: GS7807E-bfa-538-23-538 (Bacteroides fragilis) (protein)
chain: TDSFESFNTNEAGFDNDSKKQDFNYYGIPLGIIQQGIYFNYDWGSGKNWPFQTMQNLGADLFSGYVHDFNPFNEGKNNSTYYMMDGWNGSTWDNTYGYIMPEVQKSETINEKDNIGFFGITKILKVELMHRLSDLYGPIVYTQFGSKTGSTPDTQQEAYKAFFNDLDTGIAKIREYQKANPDIESFAKFDILMPQGKRTFSEWIRFANSLRLRLAVRIAMADSKLAVAEAQKALTDEEGLLEGNDEVVAVSTSSGYTNPFGEINKAWGEVFMNANMESLLVGYEDPRMEKYFDKATGSDATSLIDYKGTYKGIRQGTGFSHKNYNGHSKSTITQQTDAVLMTPAEVWFLRAEAALRGWSSESVKDCYEKGVKASFAQWGAAGAEAYLESDRKPSDYVDAFKAANNVKAVNTLTPKWDDAAGNEDKLGRIITQKWLAMFPEGGEAWAEQRRTGYPRLFPVLVNQSEGTVDTNLGPRRLNFFVGIKTTNPEQYTQLVNALGGIDNCGTRLWWDTGRNF
[1]
  glycan array binding signal (z-score): -0.253
[2]
  glycan array binding signal (z-score): 0.016
[3]
  glycan array binding signal (z-score): -0.433
[4]
  glycan array binding signal (z-score): 0.058
[5]
  glycan array binding signal (z-score): -0.377
[6]
  glycan array binding signal (z-score): -0.39
[7]
  glycan array binding signal (z-score): 0.209
[8]
  glycan array binding signal (z-score): 0.143
[9]
  glycan array binding signal (z-score): 1.24
[10]
  glycan array binding signal (z-score): 1
[11]
  glycan array binding signal (z-score): -0.584
[12]
  glycan array binding signal (z-score): 0.48
[13]
  glycan array binding signal (z-score): 1.08
[14]
  glycan array binding signal (z-score): -0.587
[15]
  glycan array binding signal (z-score): 2.49
[16]
  glycan array binding signal (z-score): 2.67
[17]
  glycan array binding signal (z-score): 0.459
[18]
  glycan array binding signal (z-score): 0.416
[19]
  glycan array binding signal (z-score): 0.812
[20]
  glycan array binding signal (z-score): 0.005
[21]
  glycan array binding signal (z-score): -0.682
[22]
  glycan array binding signal (z-score): -0.322
[23]
  glycan array binding signal (z-score): 0.801
[24]
  glycan array binding signal (z-score): 0.736
[25]
  glycan array binding signal (z-score): -0.346
[26]
  glycan array binding signal (z-score): -0.465
[27]
  glycan array binding signal (z-score): -0.627
[28]
  glycan array binding signal (z-score): 1.68
[29]
  glycan array binding signal (z-score): -0.525
[30]
  glycan array binding signal (z-score): 1.02
[31]
  glycan array binding signal (z-score): 0.289
[32]
  glycan array binding signal (z-score): 1.53
[33]
  glycan array binding signal (z-score): -0.535
[34]
  glycan array binding signal (z-score): -0.017
[35]
  glycan array binding signal (z-score): -0.251
[36]
  glycan array binding signal (z-score): -0.567
[37]
  glycan array binding signal (z-score): -0.561
